# Paper PMC4336329 (PLoS ONE, 2015)
# Among all 310,000 compounds or so, about 2,200 (0.71%) showed an effect of 50% or more. Effects have a minus sign here. Some of the results follow.
# Biological target: human ether-à-go-go-related gene (hERG) potassium channel (human, UniProt Q12809)
# Experiment: primary screen, population patch clamp on CHO cells stably expressing hERG
# Sequence of human ether-à-go-go-related gene (hERG) potassium channel (Q12809 whole entry, looked up): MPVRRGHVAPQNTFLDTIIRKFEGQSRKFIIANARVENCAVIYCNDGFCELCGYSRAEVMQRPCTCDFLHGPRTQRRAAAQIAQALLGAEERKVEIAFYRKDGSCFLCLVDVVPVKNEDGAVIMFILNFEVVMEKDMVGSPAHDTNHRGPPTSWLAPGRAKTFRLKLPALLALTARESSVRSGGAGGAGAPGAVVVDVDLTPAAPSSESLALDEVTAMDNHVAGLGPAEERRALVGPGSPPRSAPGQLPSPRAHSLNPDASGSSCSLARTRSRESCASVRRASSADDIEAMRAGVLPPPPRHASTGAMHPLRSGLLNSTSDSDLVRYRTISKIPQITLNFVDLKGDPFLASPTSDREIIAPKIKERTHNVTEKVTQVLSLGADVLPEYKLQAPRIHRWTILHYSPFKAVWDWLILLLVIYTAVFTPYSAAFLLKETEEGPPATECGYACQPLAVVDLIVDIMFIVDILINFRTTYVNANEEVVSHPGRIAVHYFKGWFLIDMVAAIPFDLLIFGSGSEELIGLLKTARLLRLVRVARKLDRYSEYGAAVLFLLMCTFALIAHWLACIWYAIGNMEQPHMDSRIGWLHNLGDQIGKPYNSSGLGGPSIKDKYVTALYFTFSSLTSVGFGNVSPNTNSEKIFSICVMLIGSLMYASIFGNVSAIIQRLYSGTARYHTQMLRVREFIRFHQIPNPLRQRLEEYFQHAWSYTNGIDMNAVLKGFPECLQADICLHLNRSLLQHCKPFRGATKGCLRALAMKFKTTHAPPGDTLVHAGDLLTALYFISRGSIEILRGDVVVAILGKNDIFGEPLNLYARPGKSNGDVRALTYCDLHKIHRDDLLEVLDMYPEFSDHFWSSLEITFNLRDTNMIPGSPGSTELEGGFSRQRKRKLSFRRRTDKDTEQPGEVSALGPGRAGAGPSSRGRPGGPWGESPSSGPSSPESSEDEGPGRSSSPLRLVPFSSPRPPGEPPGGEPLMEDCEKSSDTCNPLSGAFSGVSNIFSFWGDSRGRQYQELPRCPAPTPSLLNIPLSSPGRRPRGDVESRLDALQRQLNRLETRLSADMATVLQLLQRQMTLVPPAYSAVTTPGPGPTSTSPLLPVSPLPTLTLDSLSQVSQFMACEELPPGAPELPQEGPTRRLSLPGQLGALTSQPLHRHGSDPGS
row,SMILES,"hERG current change (%, negative = inhibition) at 1uM"
1,Cc1cc(C)nc(N/N=C/c2c(CO)cnc(C)c2O)n1,-2.09%
2,CC(C)c1ccccc1N1CC(C(=O)O)CC1=O (stereo not shown),20.7%
3,O=C(Nc1ccccc1C(=O)Nc1ccncc1)c1cccc([N+](=O)[O-])c1,7.43%
4,Brc1c(CSc2nncn2-c2ccccc2)nc2sccn12,9%
5,COc1ccc(-c2nc(CSCC(=O)NCc3ccco3)c(C)o2)cc1,1.73%
6,COc1ccc(C(CNC(=O)COc2ccccc2OC)N(C)C)cc1OC (stereo not shown),12.2%
7,COCCCNC(=O)C(=O)NC1CCCCCC1,13.5%
8,O=c1cc(CSc2nnc(COc3ccccc3)n2-c2ccccc2)c2ccccc2[nH]1,3.81%
9,C=C(C)CN(CC)C(=O)CC1C(=O)NCCN1CC(C)(C)C (stereo not shown),12.5%
10,O=C(/C=C/c1cccnc1)c1ccccc1O,12.8%
11,Clc1ccc(CSc2nc3ccncc3[nH]2)cc1,6.98%
12,CC(C)(Oc1ccc(Cl)cc1)C(=O)NCC(c1cccs1)N1CCOCC1 (stereo not shown),6.3%
13,NS(=O)(=O)c1cccc(NC(=O)/C=C/c2cccs2)c1,12.1%
14,COc1ccc(C(CNC(=O)CCNC(=O)c2ccccc2Cl)N2CCCC2)cc1 (stereo not shown),12.4%
15,CSc1sc(C(=O)NCC2CC2)c2c1S(=O)(=O)N(C)c1ccccc1-2,6.81%
16,Cc1cc(C)n2nc(C(=O)NNC(=O)c3ccc(Cl)cc3)nc2n1,3.63%
17,CC(C)C[C@H](NC(=O)Nc1cccc(C(F)(F)F)c1)C(=O)O,8.2%
18,COc1ccc(/C=N/N2CCN(C)CC2)cc1OC,15.8%
19,CCC(=O)NC(c1ccc(OC)cc1)c1cc(Cl)c2cccnc2c1O (stereo not shown),17.5%
20,COc1ccc(CCC(=O)Nc2c(C)n(C)n(-c3ccccc3)c2=O)cc1,13.8%
21,COc1cccc(C2=NN(C(=O)c3ccco3)C(c3ccco3)C2)c1 (stereo not shown),11.4%
22,Cc1ccc(NC(=O)Cc2nnc(SCC(=O)NC3=NCCS3)n2C)cc1,12.9%
23,CCOC(=O)C1CCCCN1C(=O)CCc1c(C)nc2ncnn2c1C (stereo not shown),11.5%

row,SMILES,"hERG current change (%, negative = inhibition) at 1uM"
1,O=C(COC(=O)c1cnccn1)NCc1ccccc1,11.1%
2,COCCNC(=O)C1CCCN(S(=O)(=O)c2ccc3c(c2)CC(C)N3C(=O)C2CC2)C1 (stereo not shown),6.1%
3,CCN(CC)CCC(c1ccc2c(c1)OCO2)c1c(O)cc(OC)cc1OC (stereo not shown),-73.4%
4,CCn1cc(CCCC(=O)NCc2ccc(OC)cc2)c2ccccc21,15.1%
5,CCOC(=O)c1c[nH]c(=O)c(Br)c1O,8.68%
6,c1coc(-c2nnc3sc(Cc4cccs4)nn23)c1,-14.4%
7,CC(OC(=O)c1nc(Cl)ccc1Cl)C(=O)NC1CCCCC1C (stereo not shown),22%
8,O=C(CSc1ccccc1)N1CCCC(N2CCN(c3ccc(F)cc3)CC2)C1 (stereo not shown),-56%
9,CCC(C)(C(=O)NC1CCCC1)N(C(=O)CC1NC(=O)NC1=O)c1ccc(C)cc1 (stereo not shown),3.97%
10,Cc1cccc(OCC(=O)Nc2ccc(C(=O)NCC(C)C)cc2)c1,4.42%
11,CCOC(=O)c1ccc(N2C(=O)c3n[nH]c(C)c3C2c2ccccn2)cc1 (stereo not shown),8.72%
12,Cc1ccc(-n2c(SCC(=O)OC(C)C)nnc2-c2cnccn2)cc1,8.6%
13,Cc1ccc(C)c(OCCC(=O)Nc2cccc(S(=O)(=O)N3CCCCC3)c2)c1,-1.07%
14,CC(C)C(=O)Nc1nnc(SCC(=O)N2c3ccccc3CC2C)s1 (stereo not shown),8.12%
15,COc1ccc(Cl)cc1NC(=O)Cc1c(F)cccc1Cl,6.41%
16,Cc1onc(-c2ccccc2)c1C(=O)n1nnc2ccccc21,8.95%
17,COc1cc2cc(C(c3nnnn3C3CCCCC3)N(C)C3CCCCC3)c(=O)[nH]c2cc1OC (stereo not shown),2.42%
18,O=C(O)C1=C[C@H](c2coc3ccccc3c2=O)C[C@H](OCCCCO)O1,12.3%
19,CCC(C)NC(=O)NCc1ccccc1F (stereo not shown),11.2%
20,COC(=O)C1=C(C)N(Cc2ccccc2)C(=NCc2ccccc2)N[C@H]1c1cccc(F)c1,11.8%
21,Oc1cccc(/C=N\Nc2nncc(-c3ccccc3)n2)c1,7.67%
22,CC(C)(Oc1ccc(Cl)cc1)C(=O)NC1CC1,-0.896%
23,CCN(CC)S(=O)(=O)c1ccc(OC)c(NC(=O)Cn2cnc3c2c(=O)n(C)c(=O)n3C)c1,-13.4%

row,SMILES,"hERG current change (%, negative = inhibition) at 1uM"
1,Cn1c(=O)c(=O)n(C)c2cc(S(=O)(=O)N3CCC(Cc4ccccc4)CC3)ccc21,-6.29%
2,Cn1c(CNC(=O)c2ccccc2F)nnc1SCc1ccc(Cl)cc1,3.8%
3,CCc1nn2c(=O)c(S(=O)(=O)Nc3ccc(C(C)C)cc3)c(C)nc2s1,6.3%
4,Cc1onc(-c2ccccc2Cl)c1C(=O)NNC(=O)c1cccc(F)c1,12.2%
5,C=CCn1c(N)c(C(=O)Nc2ccccc2)c2nc3ccccc3nc21,11.6%
6,CCOc1ccccc1CNS(=O)(=O)c1cnc[nH]1,8.02%
7,Cc1nonc1C(=O)N/N=C/c1ccc([N+](=O)[O-])o1,-12.9%
8,COc1ccc(/C(C)=N/NC(=O)CNC(=O)/C=C/c2ccccc2OC)cc1,7.47%
9,O=C(CCCN1C(=O)/C(=C\c2ccccc2)SC1=S)Nc1ccc(O)cc1C(=O)O,16%
10,Cc1ccc2nc(NC(=O)COC(=O)c3ccc(Br)o3)sc2c1,2.88%
11,O=C(N/N=C/C(Cl)=C/c1ccccc1)c1ccccc1F,11.8%
12,CC(=O)N1CCC(=NNc2ccc(S(=O)(=O)N3CCOCC3)cc2[N+](=O)[O-])CC1,0.897%
13,CCN(CC(=O)Nc1ccc2c(c1)OCO2)CC(=O)Nc1ccccc1C(F)(F)F,3.75%
14,CCCCCN1CSC(=S)N(Cc2ccccc2)C1,9.22%
15,Cc1cc(NC(=S)NC(=O)C2CC2)ccc1Br,7.39%
16,Cc1ncc(CN2CCCC(C(=O)Nc3ccc(-c4ccco4)cc3)C2)n1C (stereo not shown),-5.82%
17,O=C(Cc1ccc([N+](=O)[O-])cc1)NNC(=O)c1cccs1,7.22%
18,COc1ccccc1N(CC(=O)Nc1ccc2c(c1)OCCO2)S(C)(=O)=O,8.09%
19,c1csc(-c2nc(N3CCOCC3)c3ccccc3n2)c1,5.11%
20,CCCOc1ccc(Oc2nc(-c3ccncc3)nc3ccccc23)cc1,6.24%
21,CC1CCN(S(=O)(=O)c2cc3c4c(c2)CCN4C(=O)CC3)CC1,-15.7%
22,C#CCn1ccc(O)c(Cc2c(F)cccc2Cl)c1=O,8.94%
23,CCOc1cccc(-c2c(C(=O)N/N=C/c3c(F)cccc3Cl)nnn2-c2nonc2N)c1,13.6%

row,SMILES,"hERG current change (%, negative = inhibition) at 1uM"
1,O=P(Nc1cccc(F)c1)(Oc1ccccc1F)Oc1ccccc1F,11.2%
2,COc1ccc(N2CC(C(=O)NCc3ccccc3)CC2=O)cc1 (stereo not shown),10.7%
3,Cc1c(NC(=O)CSc2ncn[nH]2)c(=O)n(-c2ccccc2)n1C,19.7%
4,C=CCN(c1ccccc1)S(=O)(=O)c1cc2c(cc1C)NC(=O)CO2,0.659%
5,CS(=O)(=O)N(CC(=O)Nc1ccc(F)c(F)c1)c1cccc([N+](=O)[O-])c1,-3.37%
6,COc1ccc(Cl)cc1NC(=O)CSc1nc(N2CCCCC2)nc(N2CCCCC2)n1,8.36%
7,Cn1c(SCC(=O)OC2CCCCC2)nnc1-c1ccco1,9%
8,C/C=C/COC(=O)C1=C(C)NC(=O)NC1c1ccc2c(c1)OCO2 (stereo not shown),14.4%
9,O=C(N/N=C/c1ccc(F)cc1)c1cc(-c2ccco2)nc2ccccc12,8.34%
10,CCN(CC)C(=O)CSc1nnc(-c2ccc(S(=O)(=O)N3CCOCC3)cc2)n1C,13.8%
11,O=C(NC(=S)N1CCCc2ccccc21)c1ccc(Cl)cc1,5.9%
12,N#CC(C(=O)Nc1ccccc1)=C1CCCCC1,14.4%
13,N[C@@H](Cc1ccc(O)cc1)C(=O)Nc1ccc2ccccc2c1,5.28%
14,Cc1ccc(/C=N/NC(=O)c2cccc([N+](=O)[O-])c2)o1,2.3%
15,CCN(C(=O)COC(=O)CCc1ccccc1)c1ccccc1,13.6%
16,Cc1ccccc1N1CCN(S(=O)(=O)N(C)C)CC1,3.07%
17,CC1CCCCN1C(=O)c1ccc(Br)o1 (stereo not shown),8.55%
18,COc1ccc(/C=C(\NC(=O)c2ccc(OC)cc2)C(=O)N2CCCCC2)cc1,7.74%
19,O=C(CSc1nnc2ccc(-c3ccncc3)nn12)Nc1ccc(F)cc1,-2.46%
20,CC1CC(C)CN(C(=O)COc2ccc([N+](=O)[O-])cc2Cl)C1 (stereo not shown),15.9%
21,COCCN(CC(=O)Nc1cccc(C)c1C)C(=O)c1oc2c(Cl)cccc2c1C,-4.32%
22,COc1ccccc1N(CC(O)CN(c1ccccc1)S(C)(=O)=O)S(=O)(=O)c1ccccc1 (stereo not shown),10.3%
